The results in this text go back to patent publication US10577424.

Protein sequences, listed by entry. Tags and fused reporters are not part of them. Lines headed by an entry give the natural chain unless they say otherwise; changes in a name come on top. Residues count along the entry.
UniProt Q9D659, residues 33-191: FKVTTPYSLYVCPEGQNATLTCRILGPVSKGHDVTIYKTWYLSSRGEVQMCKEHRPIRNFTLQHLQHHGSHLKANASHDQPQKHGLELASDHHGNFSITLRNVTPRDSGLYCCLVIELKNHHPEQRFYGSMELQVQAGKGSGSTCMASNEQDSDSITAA

These are yes or no findings as the source states them, for the method shown. Some binding calls cover weakened binding; strength is not graded here.

The target of assay [1] is T1, monkey VISTA expressed on HEK293A cells (monkey (cynomolgus)).
T1 sequence: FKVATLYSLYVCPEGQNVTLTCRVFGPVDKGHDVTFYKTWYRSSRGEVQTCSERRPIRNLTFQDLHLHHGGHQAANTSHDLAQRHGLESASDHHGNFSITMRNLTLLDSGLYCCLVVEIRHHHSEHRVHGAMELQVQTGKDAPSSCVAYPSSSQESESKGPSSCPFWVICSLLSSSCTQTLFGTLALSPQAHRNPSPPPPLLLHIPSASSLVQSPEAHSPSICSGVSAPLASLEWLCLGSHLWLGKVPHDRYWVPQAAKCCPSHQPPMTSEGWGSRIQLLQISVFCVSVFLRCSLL
Kind of assay: FACS on HEK293A cells (FIG. 5).

Assay [2] has as its target mouse VISTA expressed on HEK293A cells (mouse) (UniProt Q9D659). Kind of assay: FACS on HEK293A/mouse VISTA cells, MFI [panel C].
Assay [3] concerns the target T1, monkey VISTA expressed on HEK293A cells (monkey (cynomolgus)). Kind of assay: FACS on HEK293A/monkey VISTA cells, MFI [panel B].
Assay [4] has as its target mouse VISTA-his (Sino Biological, Cat #:511550-M08H) (mouse) (UniProt Q9D659). Kind of assay: ELISA, plate coated with mouse VISTA-his, OD450 [panel C]. Background: An ELISA detects its analyte on a solid surface through an enzyme-linked reagent.

B1: 161E5-VH0VL0 (antibody, human IgG1, kappa, V domains shown)
VH: QVQLVQSGAEVKKPGASVKVSCKASGYSFTDYYINWVRQAPGQGLEWMGRIFPGSGNAYYNEKFKDRVTMTRDTSTSTVYMELSSLRSEDTAVYYCARDDSFYGYWYFDVWGQGTTVTVSS
VL: EIVMTQSPATLSVSPGERATLSCKSSQSVLYSSNQKNYLAWYQQKPGQAPRLLIYWASTRESGIPARFSGSGSGTEFTLTISSLQSEDFAVYYCHQYLSSYTFGGGTKVEIKR
Regarding B1, the binding entry is recorded as “binds” in assay [1], “no binding (tested: log 4 ng/ml (10000 ng/ml))” in assay [2], “binds” in assay [3] and “no binding (tested: about log 4.3 ng/ml (about 20000 ng/ml))” in assay [4].

B2: 161E5-VH2VL2 (antibody, human IgG1, kappa, V domains shown)
VH: QVQLVQSGAEVKKPGASVKVSCKASGYSFTDYYINWVRQAPGQGLEWIARIFPGSGNAYYNEKFKDRATLTVDKSTSTAYMELSSLRSEDTAVYYCARDDSFYGYWYFDVWGQGTTVTVSS
VL: NIMMTQSPATLSVSPGERATLSCKSSQSVLYSSNQKNYLAWYQQKPGQAPRLLIYWASTRESGVPDRFSGSGSGTEFTLTISSLQSEDFAVYYCHQYLSSYTFGGGTKVEIKR
As for B2, the binding result was “binds” in assay [1], “no binding (tested: log 4 ng/ml (10000 ng/ml))” in assay [2], “binds” in assay [3] and “no binding (tested: about log 4.3 ng/ml (about 20000 ng/ml))” in assay [4].

B3: 161E5-VH3VL3 (antibody, human IgG1, kappa, V domains shown)
VH: QVQLVQSGAEVKKPGASVKVSCKASGYSFTDYYINWVRQRPGQGLEWIARIFPGSGNAYYNEKFKDRATLTVDKSTSTAYMELSSLRSEDTAVYFCARDDSFYGYWYFDVWGQGTTVTVSS
VL: NIMMTQSPATLSVSPGERATLSCKSSQSVLYSSNQKNYLAWYQQKPGQSPRLLIYWASTRESGVPDRFSGSGSGTEFTLTISSLQSEDFAVYYCHQYLSSYTFGGGTKVEIKR
With B3, the binding result in assay [1] is “binds”; in assay [2], “no binding (tested: log 4 ng/ml (10000 ng/ml))”; in assay [3], “binds”; in assay [4], “no binding (tested: about log 4.3 ng/ml (about 20000 ng/ml))”.

B4: 161E5-VH3VL2 (antibody, human IgG1, kappa, V domains shown)
VH: QVQLVQSGAEVKKPGASVKVSCKASGYSFTDYYINWVRQRPGQGLEWIARIFPGSGNAYYNEKFKDRATLTVDKSTSTAYMELSSLRSEDTAVYFCARDDSFYGYWYFDVWGQGTTVTVSS
VL: NIMMTQSPATLSVSPGERATLSCKSSQSVLYSSNQKNYLAWYQQKPGQAPRLLIYWASTRESGVPDRFSGSGSGTEFTLTISSLQSEDFAVYYCHQYLSSYTFGGGTKVEIKR
Turning to B4, the binding entry in assay [1] was “binds”; in assay [2], “no binding (tested: log 4 ng/ml (10000 ng/ml))”; in assay [3], “binds”; in assay [4] it was “no binding (tested: about log 4.3 ng/ml (about 20000 ng/ml))”.

B5: 161E5-VH2VL3 (antibody, human IgG1, kappa, V domains shown)
VH: QVQLVQSGAEVKKPGASVKVSCKASGYSFTDYYINWVRQAPGQGLEWIARIFPGSGNAYYNEKFKDRATLTVDKSTSTAYMELSSLRSEDTAVYYCARDDSFYGYWYFDVWGQGTTVTVSS
VL: NIMMTQSPATLSVSPGERATLSCKSSQSVLYSSNQKNYLAWYQQKPGQSPRLLIYWASTRESGVPDRFSGSGSGTEFTLTISSLQSEDFAVYYCHQYLSSYTFGGGTKVEIKR
For B5, the binding entry in assay [1] is on record as “binds”; in assay [2] it was “no binding (tested: log 4 ng/ml (10000 ng/ml))”; in assay [3], “binds”; in assay [4], “no binding (tested: about log 4.3 ng/ml (about 20000 ng/ml))”.
